# Assay results as given in PubChem BioAssay AID602293 (National Center for Advancing Translational Sciences (NCATS), 2012).
# The whole screen tested about 1,300 compounds, of which about 30 (2%) were called active. Not shown: some 10% with an inconclusive outcome. Calls come from the whole dose curve; as a rule, active = well fitted inhibition curve with a large enough effect; inconclusive = small, poorly fitted or top-dose-only effect; inactive = flat fitted curve, though single readings scatter. This is one part of the list.
# Assay: qHTS for antagonists of the Thyroid Stimulation Hormone Receptor: Hit Validation in HTRF Activity in a Luteinizing Hormone Receptor Cell Line
# Conditions: LHR-expressing cell line, cAMP HTRF, antagonist mode; series mostly up to 58 µM; activity change, negative = inhibition: at the top concentration
# Text: The thyroid-stimulating hormone receptor (TSHR) is a member of the 7 trans-membrane-spanning receptor (7TMR) family of cell surface receptors. TSHR-mediated hyperthyroidism is important in thyroid pathology. The development of small molecule antagonists of TSHR may lead to therapeutic approaches for TSHR-mediated hyperthyroidism caused by constitutively activating mutations or stimulating auto-antibodies associated with Graves' disease. Graves' disease is the leading cause of hyperthyroidism and is caused by autoantibodies that stimulate TSHR (TsAbs) causing thyroid growth and unregulated overproduction of thyroid hormones and existing treatments have liabilities (agranulocytosis). In addition, TSHRs are known to be expressed in multiple extrathyroidal tissues including bone, brain, kidney, testis, fat and cells of the immune system but the role of the TSHR in these tissues is not clear. Therefore, TSHR antagonists/inverse agonists could be used as probes of extrathyroidal TSHR function. Finally, TSHR inverse agonists, which are a subclass of antagonists that inhibit agonist-independent (or basal or constitutive) TSHR signaling, could be used to inhibit TSH-independent signaling in patients with recurrent or metastatic thyroid cancer who are receiving thyroid hormone to suppress TSH.
# In collaboration between scientist from the NCGC and the NIDDK, a miniaturized HTRF high-throughput screen was developed. It's a cell based assay, where an anti cAMP antibody contains a fluorescent cryptate tag (excitation 337 nm; emission 620 nm) and the acceptor is cAMP-d2 (excitation 620 nm; emission 665 nm). When antibody and cAMP-d2 interact and are excited by a 337 nm light, a FRET occurs resulting in emission at 665 nm. The assay is competition between cAMP-d2 and cAMP (from the cell lysate). The homogeneous protocol allows for one step dispense after stimulation that is automation friendly. In order to confirm specificity of the compounds to the TSHR, a confirmatory assay was conducted on a similar family member, the Luteinizing Hormone (LH) receptor, transfected into a HEK 293 cell line, using an orthogonal detection technology to measure cAMP stimulation: antibody-based Homogeneous Time Resolved Fluorescence (HTRF).
# NIH Chemical Genomics Center [NCGC]
# NIH Molecular Libraries Probe Centers Network [MLPCN]
# Assay Provider: Marvin Gershengorn, NIDDK
# Homogeneous Time Resolved Fluorescence (HTRF) cAMP Assay. HEK 293 cells stably transfected with a vector containing the LH receptor and maintained under hygromycin selection were obtained from the laboratory of Dr. Marvin Gershengorn. Compounds were assayed using a HTRF cAMP detection kit (Cisbio) on the LH receptor transfected cell line. Briefly, 750 cells were plated in 2.5 ul/well of complete media (DMEM containing 10 % FCS, and 100 uM RO 20-1724) in 1536 well solid bottom white plates and 23 nl/well compound in DMSO solution or controls was added. Following 30 minute incubation at room temperature, 2.5 ul/well of labeled d2 cAMP and 2.5 ul/well of anti-cAMP antibody (both diluted 1:20 in lysis buffer) were added to each well using a flying reagent dispenser (Aurora Discovery, San Diego) . Plates were measured using the Envision plate reader (PerkinElmer, Boston, MA) with excitation at 330 nm and emissions of 615 nm and 660 nm.
# % is set by controls: 0 for no effect and ±100 for the full control effect; potency is the fitted concentration of half-maximal effect.
SMILES,"activity change, negative = inhibition",Potency
N#C/C(=N\Nc1ccc(S(=O)(=O)N2CCCCCC2)cc1)C(N)=S,inactive: 3.27%,
CCOC(=O)COc1ccc(Br)cc1/C=C/c1[nH]c(=O)[nH]c(=O)c1[N+](=O)[O-],inactive: 1.67%,
CC(C)(C)c1cc2nc3c(c(=O)n2[nH]1)CN(Cc1ccccc1)C3=O,inactive: 0.799%,
COc1ccc(NC(=O)c2c(F)cccc2F)cc1S(=O)(=O)Nc1ccc(Br)cc1,inactive: 1.89%,
CCOc1cc(/C=C/c2ccc3cccc([N+](=O)[O-])c3n2)ccc1OCC(=O)N(C)C,inactive: -6.45%,
COc1cccc(OC)c1C(=O)Nc1ccc2c(c1)N(S(=O)(=O)c1cccs1)CCC2,inactive: -1.97%,
CCN1C(=NCc2ccc(OC)cc2)N[C@@H](CCc2ccccc2)[C@H](C(=O)NCc2ccc(OC)cc2)[C@H]1C,inactive: -0.237%,
COc1ccc(NC2CCCN(C(=O)CCc3cccc(F)c3)C2)cc1 (stereo unspecified),inactive: 2.78%,
Cc1nn(S(=O)(=O)c2ccc(F)cc2)c(C)c1S(=O)(=O)N1CCOCC1,inactive: -0.937%,
O=C(COc1ccc(Cl)cc1)Nc1ncc([N+](=O)[O-])s1,inactive: -0.689%,
Cc1cccc(N2CCN(C(=O)C3(S(=O)(=O)c4ccc(Cl)cc4)CC3)CC2)c1C,inactive: 1.97%,
Cc1ccc(CNC(=O)CSc2nnc3c(n2)[nH]c2ccccc23)cc1,inactive: -0.907%,
Cc1ccccc1NC(=O)Cc1nc(COC(=O)c2cccc([N+](=O)[O-])c2)cs1,inactive: 3.09%,
N#C/C(=C\c1ccc(O)c([N+](=O)[O-])c1)c1nc2ccccc2s1,inactive: -0.137%,
COc1cc(/C=C(\C#N)c2ccccn2)ccc1OCc1ccc(Cl)cc1,inactive: -1.94%,
CCOc1ccc(CNC(=O)CCCn2nc(CC)n3c(cc4occc43)c2=O)cc1,inactive: 0.605%,
COc1ccc(CN(C)C(=O)COC(=O)c2cnc(Cl)c(Cl)c2)cc1,inactive: 1.72%,
O=S(=O)(NCc1csc(-c2ccccc2)n1)c1ccc(Cl)s1,inactive: 2.31%,
O=C(COC(=O)C12CC3CC(CC(Br)(C3)C1)C2)Nc1cccc(S(=O)(=O)N2CCOCC2)c1,inactive: 0.464%,
COC(=O)CN(c1ccc(C)cc1)S(=O)(=O)c1ccc2c(c1)n(C)c(=O)c(=O)n2C,inactive: 0.47%,
COc1cc(OC)c(NC(=O)Cn2cnc3sc(C)c(S(=O)(=O)N4CCOCC4)c3c2=O)cc1Cl,inactive: 1.34%,
CC(=O)N1c2ccc(S(=O)(=O)N(C)CC(=O)N(C)Cc3ccccc3)cc2CC1C (stereo unspecified),inactive: 1.01%,
Cc1ccc(S(=O)(=O)NCCNc2ccc([N+](=O)[O-])cc2)cc1,inactive: 3.17%,
Brc1ccc(CNc2ccc3ncccc3c2)cc1,inactive: 0.575%,
O=S(=O)(c1ccc(Cl)cc1)N1CCN(c2ncnc3sccc23)CC1,inactive: -1.02%,
Cc1ccc(S(=O)(=O)Oc2ccc(/C=C(/NC(=O)c3ccccc3)C(=O)Nc3ccccc3)cc2)cc1,inactive: 2.77%,

SMILES,"activity change, negative = inhibition",Potency
Cc1ccc(C(=O)NCCNc2ncc(C(F)(F)F)cc2Cl)cc1[N+](=O)[O-],inactive: 0.346%,
COC(=O)c1ccc(CN2C(=O)NC(Cc3c[nH]c4ccccc34)C2=O)cc1 (stereo unspecified),inactive: 0.496%,
COc1ccc(CC(=O)Nc2cccc(-c3nnc(-c4cccc(C)c4)o3)c2)cc1OC,,active: 21.3 µM
CCC1Sc2ccc(S(=O)(=O)CCC(=O)Nc3ccccc3Cl)cc2NC1=O (stereo unspecified),inactive: 0.151%,
O=C(OCCN1C(=O)c2cccc3c(N4CCOCC4)ccc(c23)C1=O)c1cccc(Cl)c1,inactive: -6.52%,
COc1cccc(OCC(O)CN2CC(C)CC(C)C2)c1 (stereo unspecified),inactive: 0.609%,
Cn1c(N)c(Sc2ccccc2[N+](=O)[O-])c(=O)n(C)c1=O,inactive: -0.209%,
COc1ccc(-c2c(C(F)(F)F)[nH]n3c(=O)cc(-c4ccccc4)nc23)cc1,inactive: -3.49%,
CCc1ccc(-c2nc(SCC(=O)NC3CCCC3)n[nH]2)cc1,inactive: 0.442%,
N#Cc1ccc(CN2CCN(C(=O)c3ccc(S(=O)(=O)N4CCCCCC4)cc3)CC2)cc1,inactive: -4.02%,
CCCCc1c(C)nc2nc(SCc3ccc(Cl)cc3)[nH]n2c1=O,inactive: 1.33%,
CCSc1nsc(NC(=O)Nc2cccc(OC)c2)n1,inactive: 1.44%,
Cc1ccc(CN2CCc3c(OCc4ccc(F)cc4)cccc3C2=O)cc1,inactive: -5.07%,
CCN(C(=O)CN1C(=O)COc2ccc(S(=O)(=O)N3CCOCC3)cc21)c1ccc(OC)cc1,inactive: 2.71%,
C=C(C)C1CCC(C)=C1COC(=O)Nc1ccccc1 (stereo unspecified),inactive: -3.2%,
Cc1ccc(CCNC(=O)C2CC(c3cc(C(F)(F)F)cc(C(F)(F)F)c3)=NO2)cc1 (stereo unspecified),inactive: -1.6%,
O=C(c1ccc2c(c1)OCO2)N1CCN(S(=O)(=O)c2ccc(Cl)cc2)CC1,inactive: 3.33%,
O=C(NCCc1ccccc1)c1cccnc1N1CCCCCC1,inactive: -0.194%,
Cc1cc2oc(=O)cc(CSc3nnc(-c4cccs4)o3)c2cc1C(C)C,inactive: -1.67%,
Cc1cccc(OCc2nnc(SCC(=O)N3c4ccccc4CCc4ccccc43)o2)c1,inactive: -0.426%,
CC1=C(C(=O)OC(C)(C)C)C(c2ccc3ccccc3c2)NC(=O)N1C (stereo unspecified),inactive: 0.935%,
CC(=O)c1cccc(NC(=O)CCCSc2ccccc2)c1,inactive: 0.942%,
Oc1ccc(N=Nc2nccs2)c(O)c1,inactive: 1.22%,
CC1SCC(=NOCc2ccccc2)CS1 (stereo unspecified),inactive: 2.24%,
CS(=O)(=O)c1ccc(C(=O)OCC(=O)NCc2cccs2)cc1[N+](=O)[O-],inactive: -2.45%,
COc1cccc(-c2cc(C(=O)Nc3ccn(Cc4ccc(C)cc4)n3)no2)c1,inactive: -4.1%,

SMILES,"activity change, negative = inhibition",Potency
CCNC(=O)c1ccccc1NC(=O)C1CC(=O)N(C(C)C)C1 (stereo unspecified),inactive: 1.12%,
Cc1ccc(N2CCN(S(=O)(=O)c3ccc(F)cc3)CC2)c(C)c1,inactive: 0.673%,
Cc1nn(Cc2ccc(Cl)cc2)c(C)c1NC(=O)c1noc2c1CCc1ccccc1-2,inactive: -4.12%,
O=C(N=C1SC2CS(=O)(=O)CC2N1c1ccc(F)cc1)C1CC1 (stereo unspecified),inactive: 1.15%,
CC1Cc2ccccc2N1C(=O)COC(=O)/C=C/c1ccc(F)cc1 (stereo unspecified),inactive: -0.809%,
Cc1nn(-c2nc3ccccc3s2)c(N)c1-c1ccccc1,inactive: -5.21%,
CC(=O)N1c2ccc(S(=O)(=O)N3CCC(C(=O)NC(C)c4ccccc4)CC3)cc2CC1C (stereo unspecified),inactive: 1.03%,
O=C(NCCS(=O)(=O)N1CCN(c2ccccc2)CC1)C1CC(=O)N(c2ccccc2)C1 (stereo unspecified),inactive: 1.33%,
CCSCCc1nnc(NC(=O)Nc2cccc(C(F)(F)F)c2)s1,inactive: -2.82%,
C=CCN1C=CC(=C/C=C(/C#N)C(=O)OCC)C=C1,inactive: -2.97%,
CC(Oc1ccc(Cl)cc1Cl)C(=O)Nc1cccnc1 (stereo unspecified),inactive: -1.51%,
COc1ccc(OCC(=O)NNC(=O)C2CCN(c3ncnc4sc(C)c(C)c34)CC2)cc1,inactive: 2.1%,
O=[N+]([O-])c1cc(Br)c(O)c(C=Nc2ccc(N3CCOCC3)cc2)c1,inactive: -1.06%,
O=C(Cn1cnc2ccccc21)Nc1ccc2c(c1)OCCCO2,inactive: 2.29%,
CC(C)Nc1ncnc2c1nnn2Cc1ccccc1,inactive: 2.82%,
Cc1cc(C(=O)COC(=O)c2ccc(O)cc2O)c(C)n1-c1ccccc1,inactive: -4.24%,
O=C(CC1C(=O)NCCN1Cc1cccc(F)c1F)NCCCC1CCCC1 (stereo unspecified),inactive: 3.3%,
Cc1ccc(NC(=O)CSc2nc3ncc(Br)cc3[nH]2)cc1C,inactive: 3.15%,
Cc1ccc(CSCCNC(=O)c2ccc(N(C)S(=O)(=O)c3ccccc3)cc2)cc1,inactive: -2.04%,
COc1ccc(NC(=O)Cc2nc3ccccc3[nH]2)cc1,inactive: 2.05%,
O=S(=O)(Nc1cc(Cl)ccc1-n1cncn1)c1cc(Br)ccc1Br,inactive: -0.878%,
CCN(c1ccc(OC)cc1)S(=O)(=O)c1cc(-c2cc(C)no2)ccc1C(C)C,inactive: -2.09%,
N#Cc1nc(Cc2cccc3ccccc23)oc1NCc1ccc2c(c1)OCO2,inactive: 0.795%,
CCOC(=O)c1[nH]c2cc(OC)c(OC)cc2c1NC(=O)c1ccc2c(c1)OCO2,inactive: 0.519%,
Cc1ccc(-c2csc(N(CCO)CCCn3c(C(F)(F)F)nc4ccccc43)n2)cc1,inactive: -2.99%,
NS(=O)(=O)c1ccc(CCNC(=O)c2cc3ccccc3s2)cc1,inactive: -0.327%,

SMILES,"activity change, negative = inhibition",Potency
CCc1ccccc1NC(=O)CN1CCN(C(=O)CNC(=O)Cc2cccc3ccccc23)CC1,inactive: 1.56%,
CCc1nnc(NS(=O)(=O)c2ccc(NC(=O)COc3ccc4ccccc4c3)cc2)s1,inactive: -0.418%,
COc1ccc(-n2ncc3c(N(C)C4CCCCC4)ncnc32)cc1,inactive: -3.61%,
O=S(=O)(Nc1ccc(O)c(Sc2nc3ccccc3s2)c1)c1cccc2ccccc12,inactive: 2.55%,
COc1ccc(S(=O)(=O)NCCc2cn3nc(C)c(C)nc3n2)cc1F,inactive: 0.421%,
Cc1cccc2c1-c1sc(C(=O)NCCCN3CCCC(C)C3)cc1CO2 (stereo unspecified),inactive: -1.42%,
O=C1NC(=S)S/C1=C\c1ccc(SCc2ccccc2)o1,inactive: 3.27%,
Cc1ccc(C(=O)Nc2cccc([N+](=O)[O-])c2)cc1S(=O)(=O)Nc1ccc(NC(=O)c2ccccc2)cc1,inactive: -2.14%,
COc1cc(/C=C(\C#N)c2nc3ccccc3s2)cc([N+](=O)[O-])c1O,inactive: -1.29%,
CCn1nc(C)cc1-c1nnc(Sc2ncc([N+](=O)[O-])s2)n1C,,active: 37.9 µM
CCOCCCNC(=O)C(NC(=O)c1ccc(=O)[nH]c1)c1ccc(Cl)cc1 (stereo unspecified),inactive: 1.5%,
CC(=O)N(C)c1ccc(N=NC2C(=O)N(C(N)=S)N=C2C)cc1 (stereo unspecified),inactive: 0.985%,
CN(CC(=O)Nc1ccccc1C(F)(F)F)Cc1c(O)ccc2ccccc12,inactive: 3.47%,
COc1ccc(-c2csc(NC(=O)c3ccccc3NS(=O)(=O)c3ccc(F)c(F)c3)n2)cc1,inactive: -3.22%,
Nc1nc(SCC(=O)C23CC4CC(CC(C4)C2)C3)n[nH]1,inactive: 1.45%,
COc1cc(C(=S)N2CCCC2)ccc1OCc1ccc(C)cc1,inactive: 0.206%,
O=C(Nc1ncc(S(=O)(=O)c2ccc([N+](=O)[O-])cc2)s1)c1cccc2ccccc12,inactive: 0.232%,
Cc1ccccc1NC(=O)c1cc2ccccn2n1,inactive: 2.78%,
Cc1ccc(-c2nc3ccc(C(=O)O)cc3nc2-c2ccc(C)cc2)cc1,inactive: -1.76%,
COc1cccc(CNC(=O)CCCC(=O)NC(C)CCc2ccccc2)c1 (stereo unspecified),inactive: 1.74%,
O=C(NCCC1=CCCCC1)C(=O)NCC1OCCCN1S(=O)(=O)c1ccccc1 (stereo unspecified),inactive: 3.6%,
COc1ccc(OC)c(C2=NOC(C(=O)NCC3CCCO3)C2)c1 (stereo unspecified),inactive: 1.13%,
CN(C(=O)CN1C(=O)/C(=C/c2ccccc2Cl)SC1=S)C1CCS(=O)(=O)C1 (stereo unspecified),inactive: 1.76%,
